Data on 85 molecules can be found in ChEMBL document CHEMBL4888484, “Replenishing the malaria drug discovery pipeline: Screening and hit evaluation of the MMV Hit Generation Library 1 (HGL1) against asexual blood stage Plasmodium falciparum ,using a nano luciferase reporter read-out” (2022).

Each structure is given as a SMILES string. In all, about 150,000 compounds went through this assay and about 540 (0.36%) showed an effect of 50% or more. Some of the results follow.

As usually defined, the % Inhibition is the drop in the measured response relative to a control, in per cent.

The test system of the test is Plasmodium falciparum. The test is described as follows: Primary screen in NF54 nanoGlo assay, in single point, at 2uM, 72h; a lower Z score goes with more inhibition. Type of test: functional, Erythrocyte. The conditions noted are these: timepoint 72 hour.
On to `Cc1nn(C)c(C)c1CNC(C)CC(O)c1ccc(F)cc1` (stereo not given), for which the “% Inhibition” value is -3% and the Z score was 0.38.
On to `O=C(Nc1ccc(CN2CCCC2=O)cc1)c1ccc(C2CCC2)cc1`, for which the “% Inhibition” value is given as -2% and the Z score came out at 0.25.
For `COc1ccc(-n2ncc3c2CC(C)(C)C[C@@H]3NC(=O)c2cc3ncccn3n2)cc1` the same measures were 6% and -0.52.
For `Cc1cc(NC(=O)C2(c3ccccc3)CC(=O)C2)cc2[nH]ncc12` the same measures were -17% and 3.17.
Consider `c1ccc(C2(c3ccccc3)NCCO2)cc1`, for which the “% Inhibition” value turned out to be 3% and the Z score is reported as -0.35.
For `COC(=O)c1nc([C@@H]2CCCN2Cc2ccncc2)sc1C` the same measures were 8% and -0.79.
For `Cc1ccc(S(=O)(=O)c2cnc3ccc(Cl)cc3c2Nc2ccc3c(c2)OCCO3)cc1` the same measures were 2% and -0.29.
The like results for `CC[C@](C)(NCC#N)c1nc(C)cs1` were, in that order, -9% and 0.89.
On to `CN(Cc1ccccc1Br)c1nccn(C)c1=O`, for which the “% Inhibition” value is on record as -4% and the Z score was found to be 0.59.
The like results for `COc1cccc(Cc2csc(NCc3ccccc3)n2)c1` were, in that order, -1% and 0.28.
The like results for `CCCc1noc(CN2CCc3sccc3C2)n1` were, in that order, 0% and 0.05.
For `O=C(NCC1CCN(Cc2ccoc2)CC1)c1cscn1` the same measures were 1% and -0.18.
On to `O=C(NCc1ccc(=O)[nH]n1)c1cc(Br)cnc1C1CC1`, for which the “% Inhibition” value was -4% and the Z score came out at 0.57.
The like results for `O=c1n(CCN2CCN(Cc3ccccc3)CC2)nc2ccccn12` were, in that order, -14% and 1.52.
On to `CN(CCN1CCCC1)S(=O)(=O)Cc1ccccc1F`, for which the “% Inhibition” value is given as -11% and the Z score worked out at 1.46.
For the molecule `COc1ccc(S(=O)(=O)c2csc3c2NC(=O)C[C@@H]3c2ccc(C)c(C)c2)cc1`, the “% Inhibition” value is given as -18% and the Z score is given as 1.82.
The like results for `CCc1nc2cc(N3CCC(C(=O)N[C@@H](C)CC)CC3)cnc2nc1CC` were, in that order, -9% and 1.42.
The like results for `CC(C)Cn1nnc2ccc(NC(=O)c3cccnc3)cc2c1=O` were, in that order, 16% and -2.08.
With `CN1CC(=O)N(CC(=O)N2C[C@H](c3ccccc3)C3(CCC3)C2)C1=O`, the “% Inhibition” value is reported as -3% and the Z score is reported as 0.48.
The like results for `CC(=O)NCCNC(=O)Nc1ccccc1C1CC1` were, in that order, -6% and 0.88.
The like results for `COc1ccc(OCc2cc(C(=O)NCc3noc(C)n3)n[nH]2)c(Cl)c1` were, in that order, -1% and 0.1.
Consider `CO[C@@](C)(CNC(=O)Cc1ccsc1)c1cccc(Cl)c1`, for which the “% Inhibition” value is recorded as 21% and the Z score is on record as -2.62.
The like results for `C[C@H](NC(=O)c1cc2n(n1)CCCN(Cc1ccc(F)cc1)C2=O)C(=O)NCCN1CCCCC1` were, in that order, -2% and 0.38.
Consider `Cc1cc2c(cc1C)N[C@@H](CC(=O)NC1CCCCC1)C(=O)N2`, for which the “% Inhibition” value is listed as 16% and the Z score is listed as -2.07.
For `Cc1ccc2c(c1)c1c(n2CCc2ccncc2)CCCN(C)C1` the same measures were 4% and -0.46.
The like results for `Cc1c[nH]c(CNC(=O)c2ccc3c(c2)n(CC2CC2)c(=O)n3C2CCCCC2)n1` were, in that order, -8% and 0.83.
The like results for `C[C@@H](CO)NC(=O)Nc1ccn(-c2nccs2)n1` were, in that order, 8% and -0.97.
Consider `CC(=O)N1CCN(c2nc(C3CC3)nc(C)c2Cc2ccccc2F)CC1`, for which the “% Inhibition” value is -16% and the Z score amounted to 1.49.
`Cn1cc(CNc2cccc(-c3ccc4c(c3)OCCO4)n2)cn1`: the “% Inhibition” value is recorded as -1% and the Z score was found to be 0.08.
Regarding `C[C@H]1CN(C(=O)CS(=O)(=O)c2ccc(F)cc2F)CCO1`, the “% Inhibition” value amounted to 0% and the Z score stood at 0.06.
The like results for `O=C(NCCOc1ccccc1)NC[C@H](O)c1ccoc1` were, in that order, -6% and 0.78.
For `COc1ccccc1C(=O)N[C@@H]1c2ccccc2C2(CCNCC2)[C@H]1O` the same measures were 3% and -0.55.
Take `COC(=O)c1ccc(-c2noc(C3CN(C4CCOCC4)C3)n2)cc1`: the “% Inhibition” value is on record as 24% and the Z score is given as -2.71.
The like results for `Cc1cccc(CN2CC(=O)N3CCN(C(=O)C4CCCC4)CC[C@H]3C2=O)c1` were, in that order, -22% and 2.98.
The like results for `CC(C)N1CCC(NCc2c[nH]nc2-c2cccs2)CC1` were, in that order, -8% and 1.66.
The like results for `CC(C)CN(C)C(=O)c1ccc(-c2ccc3[nH]c(=O)[nH]c(=O)c3c2)cc1` were, in that order, 0% and -0.01.
As to `O=C1C[C@@H]2CCN(C3CCOCC3)C[C@@H]2CCOc2ccc(-c3cccnc3)cc2N1`, the “% Inhibition” value was 13% and the Z score is -2.05.
The like results for `Cc1nnc2c(S(=O)(=O)N(CC#N)c3cc(F)cc(F)c3)cccn12` were, in that order, -14% and 1.78.
For `Cc1oc(-c2ccccc2NC(=O)CC2CCCC2)nc1CNC(=O)[C@@H]1CCCO1` the same measures were 16% and -2.08.
Take `Cc1nonc1C(=O)N[C@H]1CC(=O)N(Cc2cccc3ccccc23)C1`: the “% Inhibition” value was -11% and the Z score worked out at 1.65.
The like results for `Cc1ccccc1NC(=O)Cn1nc2c3cc(Cl)ccc3ncn2c1=O` were, in that order, 9% and -1.41.
Consider `COc1ccc(CN2CC[C@H]2C(=O)N[C@H]2CC[C@@H](CO)CC2)cc1`, for which the “% Inhibition” value is -10% and the Z score came to 1.98.
For `Cc1ccc(-c2c(C(=O)NC3CCN(C(C)C)CC3)csc2C)cc1` the same measures were 11% and -1.01.
The like results for `COC(=O)CN(CC#Cc1ccc(F)cc1)C(C)(C)C` were, in that order, -18% and 1.97.
For the molecule `Cn1nccc1C1CCN(c2nc(N)c3cnn(C)c3n2)CC1`, the “% Inhibition” value amounted to 5% and the Z score is recorded as -0.9.
The like results for `CC(C(=O)NCC1CCCO1)N(C)CCOc1cccc(F)c1` (stereo not given) were, in that order, -10% and 1.31.
The like results for `CN1C(=O)CC[C@]2(CNC(=O)c3ccnn3C)CCCC=C12` were, in that order, 11% and -1.57.
For `Cc1ccn2ncc(C(=O)N3CCC34COC4)c2c1`, the “% Inhibition” value is reported as 2% and the Z score is on record as -0.33.
The like results for `Cc1sc(=O)n(Cc2cc(-c3cccs3)on2)c1-c1ccccc1` were, in that order, 0% and -0.06.
The like results for `COC[C@H](C)C1CCN(C(=O)CCN2CCCCCC2)CC1` were, in that order, -1% and 0.08.
For `Cc1ccc([C@@H]2Cn3nnc(-c4nc(-c5ccccc5F)no4)c3CO2)c(C)c1` the same measures were -14% and 1.3.
As to `CCc1nc(C)c(C(=O)N[C@H]2CCCN(Cc3ncc[nH]3)CC2)o1`, the “% Inhibition” value is -12% and the Z score is 1.48.
Consider `COC(=O)c1ccc2[nH]c(CNS(=O)(=O)C3(C)CC3)nc2c1`, for which the “% Inhibition” value is given as 1% and the Z score is listed as -0.14.
For `COC(=O)C(C)N(C)C(=O)C(C)Oc1ccc(C(C)C)c(C)c1` (stereo not given) the same measures were -9% and 1.33.
The like results for `CCN(Cc1nc(C(C)(C)C)co1)[C@H]1CCS(=O)(=O)C1` were, in that order, -3% and 0.33.
For `O=C(Nc1cc(F)cc(F)c1)[C@@H]1CCCCN1CCN1CCCCC1` the same measures were 0% and 0.03.
Take `Cn1ccnc1CN1CCCC12CCN(c1ccc3ncccc3c1)CC2`: the “% Inhibition” value is recorded as -4% and the Z score came to 0.72.
The like results for `O=C(NC[C@H]1CCCC1(F)F)Nc1ccc2c(n1)CCC2` were, in that order, -10% and 1.72.
For `Cc1cc(C(C)NCC(=O)N2CCCC(C)C2)c(C)o1` (stereo not given), the “% Inhibition” value is listed as -3% and the Z score is 0.43.
Take `COC1(c2nc(-c3cc(C)cc(C)n3)no2)CCOCC1`: the “% Inhibition” value turned out to be 2% and the Z score was -0.32.
The like results for `COC(=O)CC1(NCc2ccc3nc(C)ccc3c2)CCOCC1` were, in that order, 15% and -2.9.
The like results for `COc1ccc([C@H]2C(=O)N(C3CCCCC3)CC(=O)N2Cc2ccc(C)cc2)cc1` were, in that order, -6% and 0.74.
On to `COCCC[C@]1(C(=O)O)CCCN(C(=O)c2n[nH]c3c2CCCC3)C1`, for which the “% Inhibition” value came out at 17% and the Z score is -2.21.
For `Cc1cc(C)c(CN[C@@H](CCO)C(F)F)cc1C` the same measures were 9% and -1.06.
The like results for `Cn1ccc(C(=O)NC2(c3ccc(Cl)c(Cl)c3)CC2)cc1=O` were, in that order, 2% and -0.33.
The like results for `CCCCS(=O)(=O)NC[C@H]1CCCN(C)C1` were, in that order, 1% and -0.18.
For the molecule `COc1ncccc1CN1CCC(C)C(OC)C1` (stereo not given), the “% Inhibition” value is on record as -1% and the Z score stood at 0.21.
For `Cc1c(C#N)c(N(C)C[C@H](C)C(=O)O)nc2ccccc12` the same measures were -5% and 0.67.
The like results for `O=C(CC1CC(c2ccccc2)C1)NCCCc1nc(=O)[nH][nH]1` (stereo not given) were, in that order, 1% and -0.11.
For `Cc1ccc(COC2CN(C(=O)COc3cccc(C)c3)C2)cc1` the same measures were -14% and 1.26.
For `COc1cccc(CN2CCCOCCNC(=O)[C@@H]3CCCC[C@@H]32)c1OC`, the “% Inhibition” value was 5% and the Z score is reported as -0.78.
The like results for `CC(C)[C@](C)(CO)NC(=O)C1CCC(O)CC1` (stereo not given in full) were, in that order, 6% and -0.99.
The like results for `CCN1CCC(N(CCc2ccccn2)Cc2cc(C)no2)CC1` were, in that order, 2% and -0.34.
Turning to `O=C(C1CCCCC1)N1c2ncnn2C2(CCCCC2)[C@@H]2CCCC[C@@H]21`, the “% Inhibition” value is on record as -12% and the Z score is listed as 1.94.
Take `CN(CCN1CCOC1=O)c1noc(-c2ccccc2)n1`: the “% Inhibition” value is recorded as -8% and the Z score was 1.36.
The like results for `COc1ccc(-c2cnc3ncnn3c2N2CCCN(C(=O)c3cc(F)c(F)cc3F)CC2)cc1OC` were, in that order, 2% and -0.35.
The like results for `CC1(CCNC(=O)N[C@H]2CC(C)(C)c3ccccc32)OCCO1` were, in that order, -12% and 1.64.
The like results for `CC1(C)CN(CC(=O)N(c2ccccc2)C2CCCCC2)CCN1CC(F)(F)F` were, in that order, -4% and 0.48.
As to `CCN1C[C@@H](c2ccccc2)CC2(CCN(Cc3cnc(COC)nc3)CC2)C1`, the “% Inhibition” value is -14% and the Z score turned out to be 1.74.
For `CCCn1c(=O)c(C)nc2cc(-c3noc([C@H]4CC(=O)N(c5ccccc5)C4)n3)ccc21` the same measures were -12% and 1.2.
The like results for `CN1CCN(Cc2cnc(-c3ccccc3)o2)CC1=O` were, in that order, -8% and 1.56.
The like results for `Cc1ccc(-c2nc([C@H]3CCOC3)no2)cn1` were, in that order, -12% and 1.55.
With `O=C(O)c1cn2c3c(cccc3c1=O)CC2`, the “% Inhibition” value was found to be 8% and the Z score was -0.93.
The like results for `O=C(CCC1CCN(Cc2nc3ccccc3s2)CC1)NC[C@H]1CCCO1` were, in that order, -15% and 1.36.
Regarding `CN(c1nc(CN(C)[C@H]2CCN(S(C)(=O)=O)C2)cs1)C1CC1`, the “% Inhibition” value is -4% and the Z score came to 0.78.
